Results reported in PMC12136788.
Some of the results follow.

T1: UNK ZnF1-6 (called full-length) (human, UniProt Q9C0B0 30-357)
T1 sequence: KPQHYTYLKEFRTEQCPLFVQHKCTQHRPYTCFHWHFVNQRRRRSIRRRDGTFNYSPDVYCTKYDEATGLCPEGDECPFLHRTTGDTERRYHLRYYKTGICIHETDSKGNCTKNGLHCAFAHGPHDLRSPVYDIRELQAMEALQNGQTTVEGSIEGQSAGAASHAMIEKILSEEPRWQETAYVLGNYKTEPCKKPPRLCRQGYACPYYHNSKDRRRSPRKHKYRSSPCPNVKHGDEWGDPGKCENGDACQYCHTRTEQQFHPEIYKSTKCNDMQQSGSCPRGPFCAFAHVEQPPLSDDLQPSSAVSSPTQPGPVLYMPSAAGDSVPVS

B1: chr2:157736639:157736676:-|3pUTR|ENSG00000115170|msi1_unk|FALSE|overlapping (ssRNA)
RNA: GGGAGUUCUACAGUCCGACGAUCCUUCACAUUUGUAUGUGUGUAGACUGUAACUUUUUUUCAGUUCAUAUGCAGAACGUAUUUAGCCAUUACCCACGUGACACCACCGAAUAUAUUACUGAUUUAGAAGCAAAGAUUUCAGUACAACAGAGGAUUGAGCAUCA
B2: ENSG00000107863:be:win_3251|CDS|ENSG00000107863|bound_else_gene|NA|bound_elsewhere_windowed (ssRNA)
RNA: GGGAGUUCUACAGUCCGACGAUCCUUUGCUUGGUGCUAAAUCAGAGCCAAAGACUCAAAGCCCACACUCUCCGAAGGAAGAGUCGGAAAGGAAACUUCUCAGUAAAGAUGAUACCAGUCCCCCAAAAGACAAAGGCACAUGGACAACAGAGGAUUGAGCAUCA
B3: chr21:29063390:29063550:-|CDS|ENSG00000156261|unk|FALSE|unique (ssRNA)
RNA: GGGAGUUCUACAGUCCGACGAUCGUUUACUUGUUUUGCCAGGGAACAGUGUUGAUAAAGACUGCUGAAGAAUUGAUGAAUUUUAGUAAGGGAGAAGAAAACCUCAUGGAUGCACAAGUCAAAGCUAUUGCUGAUACUGGUGCACAACAGAGGAUUGAGCAUCA
B4: chr2:190659421:190659522:+|CDS|ENSG00000138386|unk|FALSE|unique (ssRNA)
RNA: GGGAGUUCUACAGUCCGACGAUCAGAGACUGGGUCACAAACCCUGGGCUUUUCAAUCAGCCACUGACUUCCCUUCCUGUCAGUAGCAUACCCAUCUAUAAAUUACCAGAGGGAUCACCAACAUGGCUGGGAAUAUCCUGCAGUCAACAGAGGAUUGAGCAUCA
B5: ENSG00000038382:stop:overlap|stop_codon|ENSG00000038382|stop_codon|NA|stop_codon (ssRNA)
RNA: GGGAGUUCUACAGUCCGACGAUCUUGUAAGUAUAGGCGUUCAGAAUUGUAAGUCUAAAGGUAACACAAUUGCAGUCUUUUUGUAGGUAGAGAAGAAUUGUUCAUUGUCUUCAGUUUAACCUCCCAAUCUGUCCUGAAAUGUUCCAACAGAGGAUUGAGCAUCA
B6: chr12:123662440:123662541:+|3pUTR|ENSG00000111358|unk|total|mutant (ssRNA)
RNA: GGGAGUUCUACAGUCCGACGAUCAAUGGAAAUCACAAUUUUAAGUCCCGGAAAUAAAGUAUUAUAUAUACUUUCAAACAAGCCCGCAAGGCUUUUAUUAUUACUUUUUUAUUUGAAAUAUCUUAUAUAUUUGGUCCGUUCUGUCAACAGAGGAUUGAGCAUCA
B7: chr13:52643008:52643109:+|CDS|ENSG00000139675|unk|total|mutant (ssRNA)
RNA: GGGAGUUCUACAGUCCGACGAUCCAUACUGUGAAGGGCCACAACUGUGAAGUCCGAAAAGCCCUGCCAAAGCAAGAGAUGGCCCGUGCUUCAUCCAGCCAAAGAGGUCGAAGGGGUUCUGGAAACUUUGGUGGUGGUCGUGGACAACAGAGGAUUGAGCAUCA
B8: chr2:240467872:240467977:+|3pUTR|ENSG00000063660|msi1|FALSE|unique (ssRNA)
RNA: GGGAGUUCUACAGUCCGACGAUCCUCUGGCACAGUGAUGCCGGGCGCCAGGACAGCAGCACUCCCGCUGCACACAGACGGCCUAGGGGUGGCGCUCAGACCCCACCCUACGCUCAUCUCUGGAAGGGGCAGCCCUGAGUGGUCCAACAGAGGAUUGAGCAUCA
B9: ENSG00000162521:stop:overlap|stop_codon|ENSG00000162521|stop_codon|NA|stop_codon (ssRNA)
RNA: GGGAGUUCUACAGUCCGACGAUCGUUCUGUAUCAGAAGACAAUAUCAUGCAAGUGUGGCAAAUGGAGUUAGUCCUUGACCACUAGUUUGAUGCCAUCUCCAUUUUGGGUGACCUGUUUCACCAGCAGGCCUGUUACUCUCCAUCAACAGAGGAUUGAGCAUCA
B10: chr2:85649053:85649154:+|3pUTR|ENSG00000168883|unk|total|mutant (ssRNA)
RNA: GGGAGUUCUACAGUCCGACGAUCUUCAGCAGGGCAGAACCCUUCUCCAGAUGUGUGUAACUUAUGUCUUGAGUAUCUGGGAGCCGUUGAAGAACAGAUAAUUCCUUCCAAACAUCAAGCCUUGGGAUUCUUGGAGCAAGCAGACAACAGAGGAUUGAGCAUCA
B11: chr1:39623434:39626506:-|three_prime_utr|ENSG00000163909|control|control|control (ssRNA)
RNA: GGGAGUUCUACAGUCCGACGAUCCCCCAGUCAGGAGCAAUGACUGACUGGCUGCAGCCUUCCCACGCCAAGAGGCUGGAACAUAGUGUCUGCCUCGCUUCCUGGAGAUAGUAACUGAGCAGGGGCUACAAAGAGGUCUCCUGGCAACAGAGGAUUGAGCAUCA
B12: ENSG00000180398:stop:overlap|stop_codon|ENSG00000180398|stop_codon|NA|stop_codon (ssRNA)
RNA: GGGAGUUCUACAGUCCGACGAUCAUGAUGACAAGAACAAUGAUGGAUACAUUGACUAUGCUGAAUUUGCAAAAUCACUGCAGUAGAUGUUAUUUGGCCAUCUCCUGGUUAUAUACAAAUGUGACCCGUGAUAAUGUGAUUGAACAACAGAGGAUUGAGCAUCA
B13: chr2:222942681:222942782:+|3pUTR|ENSG00000123983|msi1|total|mutant (ssRNA)
RNA: GGGAGUUCUACAGUCCGACGAUCAAAAUCCGUGUUUUUCCCCGUUUGCACUGAUGCGUGUAUGGAUGUGUGUGAGUCAGUGGCCGCUUAUUUAAAAAGCACCUUAUCCUUUCUCCCAUAACCUUUGUACACUAAAAAAUGAAACAACAGAGGAUUGAGCAUCA
B14: chr9:122240152:122240253:-|3pUTR|ENSG00000119446|msi1|total|mutant (ssRNA)
RNA: GGGAGUUCUACAGUCCGACGAUCCUUCUUGGAGUACCGAAUUCACCAUUUUAUCCGUAAGUCUUCAAAGGAUUAUGGUGGACCCGAACUUACACCGUGCAAAACCGUCUUCUAUUUUUAACCGGAACUCCGAAAAAACUCCGACAACAGAGGAUUGAGCAUCA

Biological target: T1, UNK ZnF1-6 (called full-length)
Assay: nsRBNS (natural sequence RNA bind-n-seq); RBNS binding buffer (assumed for nsRBNS): 25 mM Tris pH 7.5, 150 mM KCl, 3 mM MgCl2, 0.01% Triton X-100, 500 ug/ml BSA, 20 U/ml SUPERase-In, 4 C; UNK is unkempt and MSI1 is Musashi-1; names of the RNAs are library labels; protein concentration not given here; high values mean tight binding

Row | Binder | binding signal
1 | B1 | 0.804 enrichment R
2 | B2 | 0.517 enrichment R
3 | B3 | 0.523 enrichment R
4 | B4 | 0.918 enrichment R
5 | B5 | 0.693 enrichment R
6 | B6 | 1.78 enrichment R
7 | B7 | 0.629 enrichment R
8 | B8 | 0.735 enrichment R
9 | B9 | 0.501 enrichment R
10 | B10 | 0.543 enrichment R
11 | B11 | 0.743 enrichment R
12 | B12 | 0.87 enrichment R
13 | B13 | 0.313 enrichment R
14 | B14 | 0.267 enrichment R
